Reference: PubChem BioAssay AID1347071 (National Center for Advancing Translational Sciences (NCATS), 2019)
The whole screen tested about 410,000 compounds, of which about 260 (0.063%) were called active. The inconclusive results got no clear call from the source; some entries with a clear call stand among them for comparison. The call rests on the fitted dose curve; in most records, active means well fitted activation curve with a large enough effect; inconclusive means small, poorly fitted or top-dose-only effect; inactive means no such curve, though single readings can be large or run the other way. No potency is given beside an inconclusive call; the fits are too rough.

Experiment: qHTS for compounds that reverse cellular toxicity of Amyloid beta (A-beta) peptide in yeast: Primary Screen; further: nearly all actives have a fitted effect of over 55% in size
Details: yeast expressing A-beta42, growth rescue, OD600, 48 h; growth rescue: at 46.1 µM (top of the series), 0% DMSO, 100% iron-clioquinol control
In short: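 Yeast A-beta toxicity model in growth medium with pinned compounds, 48 h at 30 C; growth read as absorbance at 600 nm. Normalized to FeCl3/clioquinol equimolar mix (positive) and DMSO (negative).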
Potency means the concentration at half of the fitted maximal effect; tags describe the fitted curve by direction and shape.

SMILES | Potency | growth rescue
Cc1cc(C)cc(NC(=S)Nc2cccc3ccccc23)c1 | inconclusive [activator, single point] | –
OC(c1ccccc1)(c1ccccc1)c1ccn[nH]1 | inconclusive [activator, partial curve, poor fit] | –
CCOC(=O)CNC(=O)Cn1cnc2c(oc3ccccc32)c1=O | inconclusive [activator, single point] | –
c1ccc(CCSc2ncnc3nc[nH]c23)cc1 | – | inactive: -14.1%
CC1=NN(C(N)=S)C(=O)C1N=Nc1ccccc1Cl (configuration not stated) | inconclusive [activator, single point] | –
COc1ccc(N2CCN(C(=O)CNS(=O)(=O)c3ccc(C)c(C)c3)CC2)cc1 | inconclusive [activator, full curve] | –
CSC(=S)N/N=C/c1ccc(N(C)C)cc1 | inconclusive [activator, single point] | –
CC(C)(C)c1ccc(S(=O)(=O)Nc2ccc(Cc3ccncc3)cc2)cc1 | – | inactive: 1.97%
CC1=C(C(=O)Nc2ccccc2C)C(c2cccnc2)n2nc(SCc3ccccc3)nc2N1 (configuration not stated) | – | inactive: 9.5%
S=C(NCc1ccc2[nH]c3c(c2c1)CCCC3)Nc1ccccc1 | inconclusive [activator, single point] | –
CC1(C)C(=O)N(OCc2ccccc2)C(C)(C)C(=O)N1OCc1ccccc1 | – | inactive: 10%
COc1ccccc1NC(=S)NC1CCCCCCCCCCC1 | inconclusive [activator, partial curve, poor fit] | –
COc1cc(NC(=O)C(CC(C)C)NS(=O)(=O)c2ccc3c(c2)CCCC(=O)N3)cc(OC)c1 (configuration not stated) | – | inactive: -14.9%
COc1cccc(/C=C/c2ccc3cccc(O)c3n2)c1 | inconclusive [activator, single point] | –
COc1ccc(-n2nc3cc(C)c(NC(=O)c4cccnc4)cc3n2)cc1 | – | inactive: -1.51%
O=C(Nc1ccc(-c2cc(C(F)(F)F)nn2-c2ccccc2)cc1)c1cccc(F)c1 | – | inactive: 3.87%
COC(=O)CSc1nnc(-c2ccco2)o1 | – | inactive: -2.58%
Clc1cccc(C2Nc3cccc4cccc(c34)N2)c1Cl | inconclusive [activator, partial curve, poor fit] | –
CCCCCC(=O)N/N=C(\C)c1ccccn1 | inconclusive [activator, partial curve, poor fit] | –
Cc1nn(C(=O)c2ccc(Cl)cc2)c(C)c1Sc1ccc(Cl)cc1 | – | inactive: -12.6%
CSc1nc2c([nH]1)c(=S)n(C)c(=O)n2C | inconclusive [activator, partial curve, poor fit] | –
Cc1ccc(NC(=O)CSc2nc3ccccc3nc2Cc2ccccc2F)cc1F | – | inactive: -1.5%
Cc1sc2nc[nH]c(=S)c2c1-c1ccccc1 | inconclusive [activator, partial curve, poor fit] | –
Cn1nnnc1SCCCNCc1ccc(-c2ccc(Br)cc2)o1 | – | inactive: -14.9%

SMILES | Potency | growth rescue
O=C(O)Cc1cn(Cc2cccc(Cl)c2)c2ccccc12 | – | inactive: 8.79%
COc1ccccc1NC(=S)N/N=C/c1ccc(O)cc1 | inconclusive [activator, single point] | –
O=S(=O)(c1ccccc1)c1ccccc1/C=N\O | inconclusive [activator, partial curve, poor fit] | –
S=c1[nH]cnc2scc(-c3ccc(Cl)cc3)c12 | inconclusive [activator, full curve, poor fit] | –
S=C(Nc1ccccc1)Nc1ccc(Br)cc1 | inconclusive [activator, single point] | –
CC1CC(C)CN(S(=O)(=O)c2ccc(C(=O)Nc3nnc(C4CC4)o3)cc2)C1 (configuration not stated) | inconclusive [activator, full curve] | –
CN(Cc1ccc(Cl)cc1Cl)C(=O)c1cccc(S(=O)(=O)N2CCN(c3ccccc3)CC2)c1 | inconclusive [activator, partial curve, poor fit] | –
CCCN(CCC)c1ccc(CC(=O)NC(C)Cc2ccccc2)cc1 (configuration not stated) | inconclusive [activator, partial curve, poor fit] | –
COc1ccc(/C=N/n2c(N)c(S(=O)(=O)c3cccs3)c3nc4ccccc4nc32)cc1OC | – | inactive: -15.4%
COc1ccc(N2C(=O)C3C(C2=O)C(C(=O)c2ccccc2)N2CCCC32)cc1 (configuration not stated) | inconclusive [activator, partial curve, poor fit] | –
Cn1cccc1C(=O)Nc1nc(-c2ccccn2)cs1 | inconclusive [activator, partial curve, poor fit] | –
Cc1ccc(NC(=S)N(Cc2ccccc2)Cc2cccs2)c(C)c1 | inconclusive [activator, full curve] | –
Cc1ccc(C)c(OCC(=O)NC2CCCCCC2)c1 | – | inactive: 21.6%
Cc1ccc(NS(=O)(=O)c2ccc(-c3cc(C)no3)cc2)c(Br)c1 | – | inactive: -9.45%
Cc1ccc(NC(=O)c2c(NC(=O)C(F)(F)F)sc3c2CCCCC3)cc1 | – | inactive: -6.95%
NC(=S)N1CCCc2ccccc21 | inconclusive [activator, single point] | –
CCn1cc(C(=O)N2CCN(c3ccc(OC)cc3)CC2)c(=O)c2cc(S(=O)(=O)N3CCOCC3)ccc21 | inconclusive [activator, single point] | –
Cc1cc(Nc2cc(F)ccc2C)nc(-n2nc(C)cc2C)n1 | inconclusive [activator, partial curve] | –
S=c1[nH]nc(Cc2ccc(Br)cc2)n1/N=C/c1ccc(Cl)cc1 | inconclusive [activator, single point] | –
COC(=O)c1cccc(CN2C(=O)SC(Nc3ccc(C)cc3)C2=O)c1 (configuration not stated) | inconclusive [activator, partial curve, poor fit] | –
Cc1cccc(NC(=O)/C(C#N)=C/c2ccc(C)o2)c1 | – | inactive: -5.56%
CC1=Nc2cc([N+](=O)[O-])ccc2NC(C)(C)C1 | inconclusive [activator, single point] | –
O=C(NC(=S)NNC(=O)c1ccccc1F)c1cccnc1 | inconclusive [activator, partial curve] | –
CC(C)CN1C2CCCC1CC(NC(=O)c1ccc([N+](=O)[O-])cc1)C2 (configuration not stated) | inconclusive [activator, full curve, poor fit] | –

SMILES | Potency | growth rescue
CCNS(=O)(=O)c1ccc(NS(=O)(=O)c2cc(C)ccc2C)cc1 | inconclusive [activator, single point] | –
S=C1NCN(C2CCCCC2)CN1CCc1ccccc1 | inconclusive [activator, partial curve, poor fit] | –
CC1(C)CC2CC(C)(CN2C(=O)COC(=O)c2ccc(O)cc2O)C1 (configuration not stated) | active: 10 µM | –
S=c1[nH]c(-c2ccccc2)cn1/N=C/c1ccccc1Br | inconclusive [activator, partial curve, poor fit] | –
O=C(O)c1cc2ccccc2c2c1C(=O)c1ccccc1-2 | inconclusive [activator, full curve, poor fit] | –
CCOC(=O)N1CCN(C(=O)c2ccc3c(c2)N(Cc2ccc(C)cc2)CCS3)CC1 | inconclusive [activator, single point] | –
Cc1ccc(-c2ccc(/C=N/NC(N)=S)o2)cc1 | inconclusive [activator, single point] | –
COc1ccc(NC(=O)CN(C)C(=O)c2cn(-c3ccccc3)nc2-c2ccc(F)cc2)cc1 | – | inactive: 10.6%
O=C(CSc1ccc(-c2cccs2)nn1)N1CCCCCC1 | inconclusive [activator, partial curve, poor fit] | –
Cc1c(Cl)cccc1NC(=O)N1CCCN(c2nc(-c3ccccc3)ns2)CC1 | inconclusive [activator, partial curve, poor fit] | –
CCC1CCCCN1C(=S)NC(=O)c1cc(Br)ccc1Cl (configuration not stated) | active: 11.2 µM | –
Cc1c(Cl)ccc2c(C(=O)NCCCn3nccc3C)cc(-c3ccccn3)nc12 | inconclusive [activator, partial curve, poor fit] | –
CCNc1nc(NCC)nc(N(C#N)CCOc2ccccc2)n1 | – | inactive: 0.509%
Cc1ccc(CCNC(=O)C2CCCN(S(=O)(=O)c3c(C)noc3C)C2)cc1 (configuration not stated) | – | inactive: 5.36%
Cc1ccc(OCc2nc(-c3ccccn3)n[nH]2)cc1 | inconclusive [activator, partial curve, poor fit] | –
COC(=O)c1ccc(Sc2ccc(F)cc2)c(N)c1 | inconclusive [activator, single point] | –
Cc1cccn2c(CN3CCCC(c4ccccc4)C3)c(C(=O)N3CCOCC3)nc12 (configuration not stated) | – | inactive: -8.23%
Clc1ccc(-n2ncc3c(NC4CCCC4)ncnc32)cc1 | – | inactive: -3.08%
CCC1CCCCN1C(=S)NC(=O)c1cccc([N+](=O)[O-])c1 (configuration not stated) | inconclusive [activator, partial curve, poor fit] | –
O=C(COC(=O)c1c[nH]c2ccccc12)Nc1ccccc1 | – | inactive: 1.45%
Cc1ccn2c(C(=O)N/N=C\c3ccc4c(c3)OCO4)c(C)nc2c1 | inconclusive [activator, partial curve] | –
C=C1C2(C(=O)Nc3nccs3)CCC(C2)C1(C)C (configuration not stated) | inconclusive [activator, single point] | –
COc1ccc(OC)c2sc(N3CCN(C(=O)c4ccco4)CC3)nc12 | – | inactive: -7.28%
CC(C)C[C@@H](COCc1ccc(C(F)(F)F)cc1)N1CCN(C(=O)c2ccc(C(F)(F)F)cc2)CCC1=O | inconclusive [activator, partial curve, poor fit] | –
